# Source: PubChem BioAssay AID686978 (National Center for Advancing Translational Sciences (NCATS), 2013)
# Several values for one entry are separate records, joined by “and”; a condition that tells them apart may be missing. Equal entries are not always repeated. The whole screen tested about 420,000 compounds, of which about 64,000 (15%) were called active. The shares of active, inactive and inconclusive entries below differ from those in the screen. The call rests on the fitted dose curve; in most records, active means well fitted inhibition curve with a large enough effect; inconclusive means small, poorly fitted or top-dose-only effect; inactive means flat fitted curve, though single readings scatter. Potencies beside an inconclusive call are fits to weak or partial responses and may not hold up.
# Assay: qHTS for Inhibitors of human tyrosyl-DNA phosphodiesterase 1 (TDP1): qHTS in cells in absence of CPT; further: nearly all actives have a fitted effect of over 55% in size
# Conditions: DT40 Tdp1-/- hTDP1 cells, no CPT, ATP luminescence, 48 h; activity change, negative = growth inhibition: at 46.2 µM (top of the series) unless noted
# Procedure, shortened: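 Stably hTDP1-transfected Tdp1-null chicken DT40 cells were treated with library compounds minus camptothecin and grown for at least 48 hr at 37 °C, after which cellular ATP was quantified by luminescence.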
# On the % scale 0 is the no-effect control and ±100 the full control effect; potency means the concentration at half of the fitted maximal effect; tags describe the fitted curve by direction and shape.
Compound,Potency,"activity change, negative = growth inhibition"
O=C(NCc1ccc(F)cc1)C1CCN(C(=O)c2cnn(-c3ccccc3)c2-n2cccc2)CC1,"inconclusive: 25.9 µM [inhibitor, single point]",–
O=C(Nc1ccccc1C(=O)O)c1cccc(S(=O)(=O)N2CCCC2)c1,inactive,–
COc1ccc(OC)c(-c2cc(C(F)(F)F)c3c(n2)sc2c(O)cc(=O)[nH]c23)c1,"inconclusive: 29.1 µM [inhibitor, single point]",–
Nc1ccc(C#Cc2ccc3c(=O)c4ccccc4oc3c2)cc1,"inconclusive: 23.1 µM [inhibitor, single point]",–
COc1ccc(Br)cc1CN(C)CC(=O)Nc1cc([N+](=O)[O-])ccc1OC,active: 16.4 µM,–
Cc1ccccc1NC(=O)CN(C)S(=O)(=O)c1cccc2nsnc12,inactive,–
COc1ccc(S(=O)(=O)N2CCCCCC2)cc1NC(=O)CN1C(=O)NC(C)(c2ccc(C)cc2)C1=O (stereo not given),"inconclusive: 20.6 µM [inhibitor, single point]",–
CCSc1nnc(NC(=O)C(C)Sc2nc3ccccc3[nH]2)s1 (stereo not given),"inconclusive: 20.6 µM [inhibitor, single point]",–
COC(=O)c1cnn(-c2ccccc2)c1-n1cccc1C=O,inactive,–
O=C1C=C(c2ccc(Cl)c(C(F)(F)F)c2)C[C@@H](c2ccc(Cl)cc2)C1,"inconclusive: 25.9 µM [inhibitor, single point]",–
COCCCNC(=S)N1CCC(NC(=O)Nc2ccc(C)cc2)CC1,inactive,–
Cc1cc(-c2cc(NC=O)c3ncc(-c4cccc(C(=O)NCCN(C)C)c4)n3c2)cc(C)c1O,"inconclusive: 29.1 µM [inhibitor, single point]",–
O=C(Cn1ncc2c3ccccc3n(Cc3ccccc3F)c2c1=O)NCCN1CCOCC1,"inconclusive: 16.4 µM [inhibitor, single point]",–
CCOc1ccc(NC(=O)NC(=O)N(C(C)C)S(C)(=O)=O)cc1,inactive,–
Cc1ccccc1N(Cc1cc(=O)[nH]c2ccccc12)C(=O)C(C)C,–,inconclusive: -32.7% [inhibitor]
Cc1ccc(-c2cc(-c3ccc(C)o3)nc(N)c2C#N)cc1,"inconclusive: 18.4 µM [inhibitor, single point]",–
COc1ccccc1CNC(=O)C1CCN(S(=O)(=O)c2cccc3cccnc23)CC1,inactive,–
O=S(=O)(/C=C/c1ccccc1)Oc1ccccc1,active: 16.4 µM,–
CCC(Cn1nnc2ccccc2c1=O)NC(=O)Nc1cccc(Cl)c1 (stereo not given),"inconclusive: 14.6 µM [inhibitor, partial curve, poor fit]",–
Cc1ccccc1NC(=O)CSc1nnc(-c2ccoc2C)n1CCc1ccccc1,"inconclusive: 20 µM [inhibitor, single point]",–
Cc1ccc([N+](=O)[O-])cc1NC(=S)NC(=O)c1cccs1,inactive,–
C[C@H](CO)N1C[C@H](C)[C@H](CN(C)S(=O)(=O)c2cccs2)Oc2ncc(-c3cc4ccccc4o3)cc2C1=O,active: 14.6 µM,–
O=C(c1ccc(S(=O)(=O)N2CCCCCC2)cc1)N1CCN(c2ccccc2F)CC1,"inconclusive: 29.1 µM [inhibitor, single point]",–
CCc1cccc(NC(=O)Cn2c(=O)n(CC3CCC(C(=O)NCCc4ccccc4)CC3)c(=O)c3ccccc32)c1 (stereo not given),active: 13 µM,–

Compound,Potency,"activity change, negative = growth inhibition"
CC(C)CCNC(=O)[C@H](Cc1ccccc1)N1Cc2ccccc2C1=O,inactive,–
Cc1oc(-c2cccc(Cl)c2)nc1CS(=O)(=O)CC(=O)NCCN1CCCC1,inactive,–
Cc1csc(NC(=O)CCC(=O)N(CC(=O)NC2CCCC2)Cc2ccccc2)n1,inactive,–
Nc1nc2nccc(-c3cccnc3)n2n1,inactive,–
COc1cc(OC)cc(C(=O)NCc2cc(C)nc3ccccc23)c1,"inconclusive: 29.1 µM [inhibitor, single point]",–
O=C(CN(Cc1ccccc1)C(=O)CNS(=O)(=O)c1ccc(F)cc1)NCc1ccco1,–,inconclusive: -30.3% [inhibitor]
CCN(C(=O)C1CCN(c2nc(-c3ccc(OC)cc3)no2)CC1)c1ccccc1,"inconclusive: 18.4 µM [inhibitor, single point]",–
C[C@@H]1CN([C@H](C)CO)S(=O)(=O)c2ccc(C3=CCCCC3)cc2O[C@H]1CN(C)C(=O)Cc1cccnc1,active: 25.9 µM,–
c1ccc(CN2CCN(Cc3ccc4c(c3)CN(Cc3c[nH]c5ccccc35)CCO4)CC2)nc1,"inconclusive: 14.6 µM [inhibitor, single point]",–
CCOC(=O)c1c(NC(=O)CN2CCCCC2)sc(C)c1C,"inconclusive: 29.1 µM [inhibitor, single point]",–
O=[N+]([O-])c1cccc(CN2CCN(c3cccc4[nH]ccc34)CC2)c1,"inconclusive: 29.1 µM [inhibitor, single point]",–
C=CCn1c(SCCC)nc2ccccc2c1=O,"inconclusive: 15.8 µM [inhibitor, single point]",–
CN(C(=O)Nc1cn(C)c(=O)c2ccccc12)c1ccccc1,inactive,–
CCCSC1C(C)=C(C)C(=O)N1Cc1ccccc1 (stereo not given),"inconclusive: 32.6 µM [inhibitor, single point]",–
Cc1ccccc1C(=O)N1CCN(c2ccc([N+](=O)[O-])c(NCc3cccnc3)c2)CC1,"inconclusive: 18.4 µM [inhibitor, single point]",–
CC(C)CC(OC(=O)c1nsc(Cl)c1Cl)C(=O)NCC1CCCO1 (stereo not given),inactive,–
Cc1ccc(C2=NN(C)c3nc4ccccc4n3C2)cc1,"inconclusive: 20.6 µM [inhibitor, single point]",–
O=C(O)/C=C/c1ccc2c(c1)S(=O)(=O)N(C1CCCC1)[C@H]2CC(=O)O,inactive,–
O=C(NCc1ccncc1)c1cncc(Br)c1,"inconclusive: 5.8 µM [inhibitor, single point]",–
COc1cccc(-c2cc(C(=O)NC3CCCC3)c3ccccc3n2)c1,"inconclusive: 25.9 µM [inhibitor, single point]",–
COc1ccccc1CCNC(=O)Cc1c(C)c2c(cc(C)c3c(C)coc32)oc1=O,"inconclusive: 3.26 µM [inhibitor, full curve, poor fit]",–
COc1ccc(N2C(=O)C(CC(=O)Nc3ccc(F)cc3)N(CCC3=CCCCC3)C2=O)cc1 (stereo not given),active: 16.4 µM,–
O=C(/C=C/c1ccc(Cl)cc1)NC(=S)Nc1ccccc1C(=O)O,"inconclusive: 29.1 µM [inhibitor, single point]",–
COc1cc(CNC(=O)CCCCCCC(C)C)ccc1O,"inconclusive: 26.6 µM [inhibitor, partial curve, poor fit] and inconclusive: 29.1 µM [inhibitor, single point]",–

Compound,Potency,"activity change, negative = growth inhibition"
O=C(C[N+]12CN3CN(CN(C3)C1)C2)c1ccc(-c2ccccc2)cc1,"inconclusive: 35.5 µM [inhibitor, single point]",–
CN1CCc2nc(SCC(=O)Nc3ccc(OC(F)(F)F)cc3)c(C#N)c(-c3cccs3)c2C1,active: 23.1 µM,–
Cc1cccn2c(=O)c(/C=C3\SC(=S)NC3=O)c(NCCCN3CCOCC3)nc12,active: 23.1 µM,–
COc1cccc(/C=C/C(=O)OCC(=O)c2c[nH]c3ccccc23)c1,inactive,–
COc1ccc(OC)c(NC(=O)C2CCCN(S(=O)(=O)c3c(C)noc3C)C2)c1 (stereo not given),"inconclusive: 29.1 µM [inhibitor, single point]",–
Cc1cc(C)nc(S/C=C/C(=O)c2ccccc2)n1,active: 2.59 µM,–
O=C(CSC1=Nc2ccccc2N=C(c2ccc(F)cc2)C1)Nc1cc(F)ccc1F,"inconclusive: 6.51 µM [inhibitor, partial curve]",–
Cc1cc(C)nc(SCc2nc(N)nc(-c3ccccc3O)n2)n1,"inconclusive: 32.6 µM [inhibitor, single point]",–
CN(Cc1ccc(F)cc1)C(=O)c1cccc(S(=O)(=O)NCc2ccccc2)c1,"inconclusive: 23.1 µM [inhibitor, single point]",–
CCCN1CCN(CC(O)COC(c2ccc(OC)cc2)c2ccc(OC)cc2)CC1 (stereo not given),inactive,–
COc1ccc(C(OC(=O)c2ccco2)C(=O)NC(C)(C)C)cc1 (stereo not given),inactive,–
Cc1cc(Nc2ccc([N+](=O)[O-])cc2)nc2ccccc12,inactive,–
CN(Cc1cccs1)c1nc(-c2cccnc2)nc2ccccc12,"inconclusive: 18.4 µM [inhibitor, single point]",–
CCCCNc1cc(NC2CCCCC2)c2c3c(onc13)-c1ccccc1C2=O,"inconclusive: 23.1 µM [inhibitor, single point]",–
COc1ccc(OC)c(-c2cc(C3CCN(c4cc(Cl)nc(N)n4)CC3)[nH]n2)c1,active: 20.6 µM,–
COc1ccc(C(C(=O)NC(C)(C)C)N(C(=O)CCC(=O)Nc2cc(C)on2)c2ccccc2F)cc1 (stereo not given),"inconclusive: 18.4 µM [inhibitor, single point]",–
CCN(CC)C(=O)C1=C(C)N(Cc2ccc(C(C)(C)C)cc2)C(=O)C(CC(=O)NCCCN(C)C)C1 (stereo not given),inactive,–
COc1ccccc1CCNC(=O)c1cc2ccccn2n1,"inconclusive: 16.4 µM [inhibitor, single point]",–
Nc1c(Br)cc2c([nH]c(=O)c3ccccc32)c1Br,"inconclusive: 18.4 µM [inhibitor, single point]",–
O=C1CCc2cc(-c3csc(-c4ccc(O)cc4)n3)ccc2N1,active: 3.16 µM,–
Cc1ccc(S(=O)(=O)N2CCN(C(=O)COC(=O)c3ncc(Cl)c(Cl)c3Cl)CC2)c(C)c1,"inconclusive: 29.1 µM [inhibitor, single point]",–
Cn1nccc1C(=O)Nc1cc(Cl)ccc1Cl,inactive,–
